Here are results for 22 sequences from article PMC6602471.

The test addresses RUNX1 (UniProt Q01196). The test is described as follows: custom PBM. The following applies: custom protein-binding microarray; buffer, salt, pH and temperature not stated; high values mean tight binding; double strand, one strand shown.

This is a selection; strong and weak results do not stand in their true shares. At the low end of the ranking, values are background and their order means little.

Sequence of UniProt Q01196 (Q01196 whole entry): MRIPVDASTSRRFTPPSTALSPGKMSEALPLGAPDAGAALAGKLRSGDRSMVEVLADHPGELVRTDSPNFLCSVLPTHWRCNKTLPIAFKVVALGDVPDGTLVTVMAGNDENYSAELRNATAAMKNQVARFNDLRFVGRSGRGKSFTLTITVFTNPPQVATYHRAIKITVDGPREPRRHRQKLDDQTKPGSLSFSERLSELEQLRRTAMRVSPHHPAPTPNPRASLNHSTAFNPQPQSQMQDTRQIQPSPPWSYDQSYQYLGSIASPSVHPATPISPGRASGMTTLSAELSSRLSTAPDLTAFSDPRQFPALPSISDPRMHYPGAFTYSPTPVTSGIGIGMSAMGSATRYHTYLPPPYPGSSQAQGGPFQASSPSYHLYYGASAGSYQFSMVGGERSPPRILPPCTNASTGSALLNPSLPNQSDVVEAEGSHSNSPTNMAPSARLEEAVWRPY

On to “GCGCACAATTCCCGTAAATCATACACGCACACATACACATACACACATACACATACGCAC”, for which the binding signal (log fluorescence intensity) turned out to be 10.8.

On to “CGCGCACTCTTTGGTTGCGCACATACGCACACATACACATACACACATACACATACGCAC”, for which the binding signal (log fluorescence intensity) is 10.9.

Take “CGCGCACTCTGTGATTGCGCACATACGCACACATACACATACACACATACACATACGCAC”: the binding signal (log fluorescence intensity) is 10.9.

Regarding “GCATACGGCTGACGTTAGCCACATACGCACACATACACATACACACATACACATACGCAC”, the binding signal (log fluorescence intensity) stood at 10.8.

For the sequence “GCATACGGATGACGTCAGCCACATACGCACACATACACATACACACATACACATACGCAC”, the binding signal (log fluorescence intensity) came to 10.8.

Take “GCGCACACTTCCCGTAAATCATACACGCACACATACACATACACACATACACATACGCAC”: the binding signal (log fluorescence intensity) amounted to 10.9.

Take “GCATACGGCTTACGTCAGCCACATACGCACACATACACATACACACATACACATACGCAC”: the binding signal (log fluorescence intensity) stood at 10.9.

Take “GCATACGGCTGACGCCAGCCACATACGCACACATACACATACACACATACACATACGCAC”: the binding signal (log fluorescence intensity) came to 10.9.

Take “CGCGCACTCTGTTGTTGCGCACATACGCACACATACACATACACACATACACATACGCAC”: the binding signal (log fluorescence intensity) was determined as 10.9.

For “CGCGCACTCTGTGGTGGCGCACATACGCACACATACACATACACACATACACATACGCAC”, the binding signal (log fluorescence intensity) amounted to 11.1.

Consider “CGCGCACTCTGTGGTTGAGCACATACGCACACATACACATACACACATACACATACGCAC”, for which the binding signal (log fluorescence intensity) worked out at 11.5.

Regarding “CGCGCACTCTGAGGTTGCGCACATACGCACACATACACATACACACATACACATACGCAC”, the binding signal (log fluorescence intensity) was determined as 10.9.

For “GCGCACATTTCCCGGAAATCATACACGCACACATACACATACACACATACACATACGCAC”, the binding signal (log fluorescence intensity) came to 10.8.

Regarding “GCATACGGCTGACGTCACCCACATACGCACACATACACATACACACATACACATACGCAC”, the binding signal (log fluorescence intensity) was 10.9.

As for “GCATACGGCTGACGTCTGCCACATACGCACACATACACATACACACATACACATACGCAC”, the binding signal (log fluorescence intensity) amounted to 10.8.

For the sequence “GCGCACATTTACCGTAAATCATACACGCACACATACACATACACACATACACATACGCAC”, the binding signal (log fluorescence intensity) is 10.9.

Regarding “GCGCACATTTCCCGTAATTCATACACGCACACATACACATACACACATACACATACGCAC”, the binding signal (log fluorescence intensity) stood at 10.9.

As for “GCGCAAATTTCCCGTAAATCATACACGCACACATACACATACACACATACACATACGCAC”, the binding signal (log fluorescence intensity) was 10.9.

As for “GCGCACATTTCGCGTAAATCATACACGCACACATACACATACACACATACACATACGCAC”, the binding signal (log fluorescence intensity) was determined as 10.9.

With “GCGCACATTTCCCGAAAATCATACACGCACACATACACATACACACATACACATACGCAC”, the binding signal (log fluorescence intensity) came to 10.9.

Consider “CGCGCTCTCTGTGGTTGCGCACATACGCACACATACACATACACACATACACATACGCAC”, for which the binding signal (log fluorescence intensity) was 11.4.

On to “CGCGCACTTTGTGGTTGCGCACATACGCACACATACACATACACACATACACATACGCAC”, for which the binding signal (log fluorescence intensity) turned out to be 11.6.
